Measurements reported in PMC11335204.
No constants are given. Whether binding was seen depends on the method and setting. Binding seen in cells or lysates may run through a third protein. Some binding calls cover weakened binding; strength is not graded here. Tags and fused reporters may be left off the sequences shown.

Chains of the proteins cited; added tags and fusions are not shown. Lines headed by an entry give the natural chain unless they say otherwise; changes in a name come on top. A line that says so, or that is headed by a name, gives the form on record, which may keep a tag or linker. Residues count along the entry.
GST fused to the 2-340 INF2 fragment (Q27J81, residues 2-340): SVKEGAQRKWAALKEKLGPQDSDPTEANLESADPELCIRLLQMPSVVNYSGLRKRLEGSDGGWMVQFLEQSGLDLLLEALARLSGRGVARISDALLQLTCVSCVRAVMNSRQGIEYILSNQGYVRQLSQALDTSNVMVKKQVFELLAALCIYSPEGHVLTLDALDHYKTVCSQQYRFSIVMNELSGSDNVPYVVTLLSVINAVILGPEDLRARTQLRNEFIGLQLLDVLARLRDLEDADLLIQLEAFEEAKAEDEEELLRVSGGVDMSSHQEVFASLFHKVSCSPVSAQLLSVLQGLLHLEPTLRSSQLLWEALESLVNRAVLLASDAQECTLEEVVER
GST fused to the 2-21 INF2 fragment (Q27J81, residues 2-21): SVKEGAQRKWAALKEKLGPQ
GST fused to the 19-340 INF2 fragment (Q27J81, residues 19-340): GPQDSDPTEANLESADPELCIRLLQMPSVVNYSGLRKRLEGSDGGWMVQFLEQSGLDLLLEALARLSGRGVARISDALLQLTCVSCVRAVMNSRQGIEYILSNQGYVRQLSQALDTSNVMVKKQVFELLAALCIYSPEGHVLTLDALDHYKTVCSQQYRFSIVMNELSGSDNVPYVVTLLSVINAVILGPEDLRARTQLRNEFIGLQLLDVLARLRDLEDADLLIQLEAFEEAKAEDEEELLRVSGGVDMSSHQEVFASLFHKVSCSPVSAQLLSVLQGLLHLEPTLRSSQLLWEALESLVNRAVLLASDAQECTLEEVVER
GST fused to the 2-340 INF2 fragment with the triple W11L14L18A mutation (Q27J81, form named): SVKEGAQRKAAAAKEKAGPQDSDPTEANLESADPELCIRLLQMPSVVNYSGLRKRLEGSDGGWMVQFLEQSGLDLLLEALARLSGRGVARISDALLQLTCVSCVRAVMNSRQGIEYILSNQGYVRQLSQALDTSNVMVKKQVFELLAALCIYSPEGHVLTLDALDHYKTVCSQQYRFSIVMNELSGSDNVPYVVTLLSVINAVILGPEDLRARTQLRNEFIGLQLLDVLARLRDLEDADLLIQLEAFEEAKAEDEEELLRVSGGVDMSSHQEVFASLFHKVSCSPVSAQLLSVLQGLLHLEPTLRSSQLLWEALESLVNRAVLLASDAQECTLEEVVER

Key:
Experiment in all cases: pull-down; 30 µg GST-fused INF2 fragments immobilized on glutathione-Sepharose 4B beads, incubated 3 h at 4 °C with lysates of HEK293T cells expressing GFP fusions; 20 mM Tris-HCl pH 7.8, 150 mM NaCl, 1% Nonidet P-40, 1% glycerol, 5 mM CaCl2; immunoblotting; only the target purified
[1] = molecular target: GST fused to the 2-340 INF2 fragment (human) (UniProt Q27J81)
[2] = molecular target: GST fused to the 2-340 INF2 fragment with the triple W11L14L18A mutation (human) (UniProt Q27J81)
[3] = molecular target: GST fused to the 2-21 INF2 fragment (human) (UniProt Q27J81)
[4] = molecular target: GST fused to the 19-340 INF2 fragment (human) (UniProt Q27J81)

binding [1]: binds | binding [2]: no binding | binding [3]: binds | binding [4]: no binding
B1: GFP fused to centrin-3 (protein, UniProt O15182 1-167)
chain: MSLALRSELVVDKTKRKKRRELSEEQKQEIKDAFELFDTDKDEAIDYHELKVAMRALGFDVKKADVLKILKDYDREATGKITFEDFNEVVTDWILERDPHEEILKAFKLFDDDDSGKISLRNLRRVARELGENMSDEELRAMIEEFDKDGDGEINQEEFIAIMTGDI
